Assay results published in PubChem BioAssay AID276 (DTP/NCI, 2004).
Toxic doses and inconclusive results are not listed. A number of entries come with more than one value. The list is limited to them. An entry can have further records. Values that stand side by side repeat one measurement (runs, samples, wells, individuals or studies).

Tested on: B6C3F1 mice, Lewis lung carcinoma iv, survival T/C
Experiment: NCI In Vivo Anticancer Drug Screen. Data for tumor model Lewis Lung Carcinoma (intravenous) in B6C3F1 mice
Settings: endpoint: median survival time, higher = longer survival
Protocol: The antitumor activity of compounds was measured in mice bearing transplantable tumors. Survival or tumor size were measured and the results are expressed as the measurement made in the treated group (T) divided by the measurement made in the vehicle treated control group (C). The tumor model used in this assay is Lewis Lung Carcinoma (intravenous) in B6C3F1 mice

In the case of `O=NN(CCCl)C(=O)NC1[C@H](O)CCC[C@@H]1O` (stereo partly drawn), the T/C (dose: 2.5 mg/kg/injection, schedule: Q01DX009 (ip), vehicle: saline) is reported as 118 % of control and 156 % of control.
For `NC(=O)c1c[se]c(C2OC(CO)C(O)C2O)n1` (stereo not drawn), the T/C (dose: 50.0 mg/kg/injection, schedule: Q01DX009 (ip), vehicle: water) was 94 % of control and 355 % of control.
For `O=NN(CCCl)C(=O)NC1CCCCC1`, the T/C (dose: 4.0 mg/kg/injection, schedule: Q01DX009 (ip), vehicle: Klucel (hydroxypropylcellulose) (HPC)) was 103 % of control, 155 % of control, 158 % of control and the T/C (dose: 16.0 mg/kg/injection, schedule: Q01DX009 (ip), vehicle: Klucel (hydroxypropylcellulose) (HPC)) was 102 % of control and 151 % of control.
`O=P1(N(CCCl)CCCl)NCCCO1` (stereo not drawn) was tested, and the T/C (dose: 200.0 mg/kg/injection, schedule: Q01DX001 (ip), vehicle: saline) was 98 % of control, 190 % of control, 312 % of control.
In the case of `CC1=NNC(=O)C1CCO` (stereo not drawn), the T/C (dose: 100.0 mg/kg/injection, schedule: Q01DX009 (ip), vehicle: Klucel (hydroxypropylcellulose) (HPC)) is reported as 89 % of control and 292 % of control.
With `CNC(=O)c1cccc2c(Nc3ccc(NS(C)(=O)=O)cc3OC)c3cccc(C)c3nc12` the T/C (dose: 25.0 mg/kg/injection, schedule: Q04DX003 (ip), vehicle: saline + alcohol) was 87 % of control and 294 % of control.
With `C#C[C@]1(O)CC[C@H]2[C@@H]3CCc4cc(O)ccc4[C@H]3CC[C@@]21C` the T/C (dose: 200.0 mg/kg/injection, schedule: Q01DX009 (ip), vehicle: Klucel (hydroxypropylcellulose) (HPC)) was 105 % of control and 154 % of control.
